Source: PubChem BioAssay AID686979 (National Center for Advancing Translational Sciences (NCATS), 2013)
Hit rate of the full screen: of about 420,000 compounds, about 50,000 (12%) were called active. The inconclusive results got no clear call from the source; some entries with a clear call stand among them for comparison. Calls come from the whole dose curve; as a rule, active = well fitted inhibition curve with a large enough effect; inconclusive = small, poorly fitted or top-dose-only effect; inactive = flat fitted curve, though single readings scatter. No potency is given beside an inconclusive call; the fits are too rough.

Test: qHTS for Inhibitors of human tyrosyl-DNA phosphodiesterase 1 (TDP1): qHTS in cells in presence of CPT; note: nearly all actives have a fitted effect of over 55% in size
Details: chicken DT40 Tdp1-/-;hTDP1 cells + 20 nM CPT, ATP luminescence, 48 h; series mostly up to 46.2 µM
In short: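 Cell growth measured by CellTiter-Glo luminescence after a minimum 48 h, 37 C compound exposure with 20 nM CPT in Tdp1-knockout DT40 cells stably expressing hTDP1, seeded 400/well; qHTS titration format.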
Potency is the fitted concentration of half-maximal effect; tags give direction and shape of the fitted curve.

Compound | Potency
Cc1ccc(NC(=O)CCCc2nnc3n(C)c(=O)c4sccc4n23)cc1C | inconclusive [inhibitor, single point]
C=CCOC(=O)C1=C(C)Nc2ncnn2C1c1cc(Br)ccc1F (stereo not given) | inconclusive [inhibitor, single point]
Cc1cc(NCC2CCCCC2)nc2ccccc12 | inconclusive [inhibitor, partial curve]
Cc1c(Cl)c(=O)oc2cc(OCC(=O)N3CCCC(C)C3)ccc12 (stereo not given) | inconclusive [inhibitor, single point]
O=C(CCCNC(=O)c1ccc(Cl)cc1)NCc1ccccc1F | inactive
CC1=CC(C)(C)n2c(O)c(N=NC(N)=S)c3c(C)ccc1c32 | inactive
Cc1ccc(NC(=O)c2nc(S(C)(=O)=O)ncc2N(Cc2cccc(F)c2)Cc2ccco2)cc1C | inconclusive [inhibitor, single point]
CCc1nn(CC(=O)NCc2ccco2)c(=O)c2cc3cc(F)ccc3n12 | inactive
CCOc1cc(C(=O)CCC(=O)OCC(=O)N2c3ccccc3NC(=O)C2(C)C)ccc1O | inconclusive [inhibitor, single point]
COc1ccc(N=Cc2nc(-c3ccccc3)oc2OC(C)=O)cc1 | inconclusive [inhibitor, partial curve]
COCCCNC(=O)Cc1c(C)c2c(cc(C)c3c(C(C)(C)C)coc32)oc1=O | active: 1.3 µM
CCOCCC(=O)Nc1nnc(CCc2ccccc2)s1 | inactive
O=C(O)C1CC(=O)N(c2ccc(F)cc2)C1 (stereo not given) | inconclusive [inhibitor, single point]
COc1ccc(COc2cc(-c3cccc(OC)c3)nc3ccc(N)cc23)cc1 | active: 1.46 µM
CCOc1ccccc1N1CCN(CC(O)COc2ccc3c(C)cc(=O)oc3c2)CC1 (stereo not given) | inactive
Nc1nc(-c2ccccc2)nn1S(=O)(=O)c1ccccc1 | inactive
COC(=O)c1ccc(NCc2cc(O)ccc2O)cc1 | active: 4.61 µM
Cc1c(C(=O)O)c(O)cc2c1C(=O)c1c(O)c([C@H]3O[C@H](CO)[C@@H](O)[C@H](O)[C@H]3O)c(O)c(O)c1C2=O | active: 8.91 µM
CCOc1ccc(S(=O)(=O)N2CCCC(C(=O)NCc3ccccn3)C2)cc1C (stereo not given) | inconclusive [inhibitor, single point]
CCc1nnc(NC(=O)c2ccc(S(=O)(=O)N3CCc4ccccc4C3)cc2)s1 | inconclusive [inhibitor, single point]
O=C(CC1CCCCC1)N=C1SC2CS(=O)(=O)CC2N1c1ccccc1 (stereo not given) | inactive
O=C1C2C(c3ccccc3)CC=CC2[C@H](c2ccoc2)N1Cc1ccccc1 (stereo not given in full) | inconclusive [inhibitor, single point]
Cc1nc2ccc(NC(=O)c3cc([N+](=O)[O-])cc([N+](=O)[O-])c3Cl)cc2s1 | active: 5.17 µM

Compound | Potency
Cc1nnc(SCC2CCCO2)n1-c1ccccc1 (stereo not given) | inactive
Cc1ccc(OCC(=O)NNC(=S)NC(=O)c2ccc(Br)o2)c(C)c1 | inconclusive [inhibitor, single point]
COc1ccccc1CNC(=O)C1CCN(S(=O)(=O)N2CC(C)CC(C)C2)CC1 (stereo not given) | inconclusive [inhibitor, partial curve]
COCCCNC(=O)c1ccc(Cn2c(SCc3cccc(C)c3)nc3cccnc32)cc1 | inconclusive [inhibitor, single point]
Cc1ccc(C)c(N2CCN(C(=O)c3cc(S(=O)(=O)N4CCCCCC4)cn3C)CC2)c1 | inconclusive [inhibitor, single point]
CC1(C)CC(=O)/C(=C(/O)CCCN2C(=O)c3ccccc3C2=O)C(=NC(C)(C)C)C1 | inactive
CC(C)CC(=O)Nc1ccc(-c2nnn(CC(=O)NCc3ccco3)n2)cc1 | inactive
COc1cccc(CNC(=O)N2CCN(S(=O)(=O)c3ccc(Cl)cc3)CC2)c1 | inconclusive [inhibitor, full curve, poor fit]
O=S(=O)(N/N=C/c1c(F)cccc1Cl)c1ccccc1 | inconclusive [inhibitor, single point]
O=C(CCCn1c(SCC(=O)c2ccccc2)nc2ccccc2c1=O)NCC1CCCO1 (stereo not given) | active: 16.4 µM
CCN(CC)S(=O)(=O)c1ccc2oc(C(=O)NCc3ccccc3OC)c(C)c2c1 | active: 7.31 µM
CCOc1ccc(N(CC)S(=O)(=O)N2CCCC(C(=O)NCCc3ccc(OC)cc3)C2)cc1 (stereo not given) | inconclusive [inhibitor, single point]
Cc1cc(C)cc(N2CC(c3nc4ccccc4n3C)CC2=O)c1 (stereo not given) | inconclusive [inhibitor, single point]
CC(C)NC(=O)c1cc(C2CCCCN2C(=O)c2cc(C(C)(C)C)nn2C)on1 (stereo not given) | inconclusive [inhibitor, single point]
CC1(C)c2ccccc2-c2nc3ccccc3cc2C1O (stereo not given) | inconclusive [inhibitor, single point]
CC(Nc1cc(N2CCN(S(C)(=O)=O)CC2)ccc1[N+](=O)[O-])c1ccccc1 (stereo not given) | inconclusive [inhibitor, single point]
COC(=O)c1ccccc1NC(=O)Cn1c(=O)n(-c2cccc(C(F)(F)F)c2)c(=O)c2c(C)c(C)sc21 | inactive
CCCc1nc2ccc(C(=O)OC)cn2c1Cc1ccccc1C(F)(F)F | inconclusive [inhibitor, single point]
O=[N+]([O-])c1ccc(Sc2ccncn2)c([N+](=O)[O-])c1 | active: 1.03 µM
CCOc1ccc(CNC(=O)CCn2c(=O)oc3ccccc32)cc1 | inactive
Cc1ccc([C@H]2C(C(=O)O)=CC[C@@H](c3ccc(C)cc3)N2S(=O)(=O)c2ccc(C)cc2)cc1 | inactive
COc1ccc(S(=O)(=O)N(CC(C)C)CC(C)C)c2cccnc12 | inconclusive [inhibitor, partial curve, poor fit]
